Measurements published in PubChem BioAssay AID686978 (National Center for Advancing Translational Sciences (NCATS), 2013).
Out of some 420,000 compounds screened, about 64,000 (15%) were called active. Inconclusive means that the source gave no clear call. Such entries were picked first, then a sample of the others. Calls come from the whole dose curve; as a rule, active = well fitted inhibition curve with a large enough effect; inconclusive = small, poorly fitted or top-dose-only effect; inactive = flat fitted curve, though single readings scatter. No potency is given beside an inconclusive call; the fits are too rough.

Experiment: qHTS for Inhibitors of human tyrosyl-DNA phosphodiesterase 1 (TDP1): qHTS in cells in absence of CPT; note: nearly all actives have a fitted effect of over 55% in size
Settings: DT40 Tdp1-/- hTDP1 cells, no CPT, ATP luminescence, 48 h; activity change, negative = growth inhibition: at 46.2 µM (top of the series) unless noted
How it was run: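 Chicken DT40 Tdp1-/- cells complemented with human TDP1, screened without camptothecin (DMSO vehicle only), 400 cells/well. Compounds pin-transferred, cells incubated at 37 °C for at least 48 hr. Growth read as ATP-dependent luminescence (CellTiter-Glo, 30 min at RT).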
% is set by controls: 0 for no effect and ±100 for the full control effect; potency is the fitted concentration of half-maximal effect; tags give direction and shape of the fitted curve.

Structure (SMILES)	Potency	activity change, negative = growth inhibition
Cc1cccc(/C=C2\Sc3ccc(C(=O)N4CCC(C)CC4)cc3N(C)C2=O)c1	inconclusive [inhibitor, single point]	–
O=C(NCC1(N2CCCCC2)CCCCC1)c1ccc(-n2cc(NC(=O)c3cccnc3)cn2)cc1	inconclusive [inhibitor, full curve, poor fit]	–
O=C1N(Cc2ccc(F)cc2Cl)c2ccccc2C12OCCCO2	inconclusive [inhibitor, single point]	–
O=C(Nc1c2c(nn1-c1ccc([N+](=O)[O-])cc1)CS(=O)(=O)C2)c1cccs1	inconclusive [inhibitor, single point]	–
CCC1(C2CCN(C(=O)c3ccc(C)cc3C)CC2)NC(=O)N(CCc2scnc2C)C1=O (stereo unspecified)	inactive	–
CCCN(C)C[C@@H]1OCCCC[C@@H](C)Oc2ccc(NC(=O)c3ccccc3)cc2C(=O)N([C@H](C)CO)C[C@@H]1C	inconclusive [inhibitor, single point]	–
OCC(O)C(O)C(O)C(O)C(O)CO (stereo unspecified)	inactive	–
CCCN(CCC)S(=O)(=O)c1ccc(C(=O)NNC(=O)c2cc(OC)c(OC)c(OC)c2)cc1	inconclusive [inhibitor, single point]	–
CN1[C@@H](Cc2ccccc2)COc2cc(N3CCSCC3)ccc2S1(=O)=O	active: 16.4 µM	–
CC(=O)NC(CC(=O)N(C)Cc1cccc(Cl)c1Cl)c1ccccc1 (stereo unspecified)	–	inconclusive: -33.2% [inhibitor]
CCCCCC(=O)N1CCN(c2ccc(C(C)=O)cc2F)CC1	active: 20.6 µM	–
Cc1ccc2c(c1)N(CC(=O)Nc1ccc3c(c1)OCCO3)C(=O)CO2	–	inconclusive: -30.5% [inhibitor]
Cc1ccc(NC(=O)CNc2cccc(S(=O)(=O)N3CCCC3)c2)cc1F	inconclusive [inhibitor, single point]	–
COc1cc(/C=C/C(=O)c2ccc3c(c2)OCCO3)cc(Br)c1OCC(=O)N(C)C	active: 7.31 µM	–
O=C(NCCC1=CCCCC1)C1CCN(S(=O)(=O)c2cccs2)CC1	inconclusive [inhibitor, single point]	–
CN(N=O)c1ccc2c(c1)Cc1ccccc1-2	inconclusive [inhibitor, single point]	–
O=C(NCc1ccco1)c1ccc(S(=O)(=O)c2cccc(S(=O)(=O)N3CCOCC3)c2)cc1	–	inconclusive: -30.2% [inhibitor]
COc1ccccc1C(=O)Nc1ccc(-c2nc3ccccc3s2)c(C)c1	inconclusive [inhibitor, partial curve]	–
COc1ccc(OC)c(C(=O)C(=O)c2cc(OC)ccc2OC)c1	inconclusive [inhibitor, partial curve]	–
Cc1nn(-c2ccc(F)cc2)c(Cl)c1C(=O)OC(C)C(=O)N(C)C1CCCCC1 (stereo unspecified)	active: 11.6 µM	–
CNc1nc(NCc2ccccc2)c2ccccc2n1	active: 4.61 µM	–
CC1CCCCN1CC(=O)N1CCCc2c1c(=O)oc1ccc(OCc3ccccc3)cc21 (stereo unspecified)	active: 4.61 µM	–
COc1ccccc1N1CC(C(=O)Nc2cc(C(F)(F)F)ccc2N2CCCC2)CC1=O (stereo unspecified)	inactive	–

Structure (SMILES)	Potency	activity change, negative = growth inhibition
CC(C)(C)N(Cc1ccccc1)C(=O)COC(=O)C1CC1	inactive	–
C[C@H](CO)N1C[C@H](C)[C@@H](CN(C)C(=O)Nc2ccc(C(F)(F)F)cc2)Oc2c(NC(=O)Nc3ccc(C(F)(F)F)cc3)cccc2C1=O	active: 7.31 µM	–
NC(=O)COC(=O)C1CSC2(c3ccc(F)cc3)CCC(=O)N12 (stereo unspecified)	–	inconclusive: -29.6% [inhibitor]
CCOC(=O)c1sc(NC(=O)c2ccc3nc[nH]c3c2)nc1C	active: 8.2 µM	–
COC(=O)c1ccc(NC(=O)CN2C(=O)CSC2=O)cc1	–	inconclusive: -33.5% [inhibitor]
COc1cc(/C=C2\C(=O)N(c3ccc(S(N)(=O)=O)cc3)N=C2C)ccc1OC(=O)c1ccco1	inactive	–
COc1ccc(NC(=O)C2CCN(S(=O)(=O)c3ccc4[nH]c(=O)oc4c3)CC2)c(OC)c1	inconclusive [inhibitor, partial curve, poor fit]	–
Cc1csc(NC(=O)C2C3C=CC(O3)C2C(=O)O)n1 (stereo unspecified)	inactive	–
CC(=O)Nc1cccc(NC(=O)c2ccco2)c1	inactive	–
CC1OC(c2ccccc2)OC2COC(c3ccccc3)OC12 (stereo unspecified)	inactive	–
O=C(CN1C(=O)COc2ccc(Cl)cc21)Nc1ccc(N2CCOCC2)cc1	inconclusive [inhibitor, full curve, poor fit]	–
O=C1C=CN(Cc2ccccc2)C(c2ccccc2)C1 (stereo unspecified)	inactive	–
CCC(COC)Oc1cc(NCc2ccccc2)c2ncn(C(C)C)c2c1 (stereo unspecified)	active: 18.4 µM	–
C[C@@H]1[C@H]2[C@@H]3CC[C@@H](C3)[C@H]2CN[C@H]1c1cn(Cc2ccccc2)c2ccccc12	inconclusive [inhibitor, single point]	–
CC(C)CC(=O)NC(=S)Nc1ccc(Cl)cn1	inconclusive [inhibitor, single point]	–
Cc1ccc(Nc2nc(Oc3ccc(OCc4ccccc4)nn3)nc(N3CCOCC3)n2)cc1	inconclusive [inhibitor, partial curve]	–
Cc1ccccc1-c1ccc(C(=O)NCc2ccccc2)o1	–	inconclusive: -32.3% [inhibitor]
Cc1ccccc1-c1cc(=O)c2ccccc2o1	inconclusive [inhibitor, single point]	–
COCC(C)n1c(C)cc(C(=O)COC(=O)CCc2nc3ccccc3c(=O)[nH]2)c1C (stereo unspecified)	inactive	–
Fc1ccc(-n2cc(-c3ccccc3)c3c(N4CCOCC4)ncnc32)cc1	active: 20.6 µM	–
COC(=O)[C@H](Cc1ccccc1)NC(=O)Cn1cnc2c(NCc3ccccc3)ncnc21	inconclusive [inhibitor, single point]	–
Cc1ccc(-c2ccc(=O)n(CC(=O)Nc3ccc(F)c(Cl)c3)n2)cc1C	inactive	–
CCOc1ccc(CCNc2nc3c(-c4ccc(C)cc4)nnn3c3ccccc23)cc1OCC	inconclusive [inhibitor, partial curve]	–
